According to article PMC12311180:
These are yes or no findings as the source states them, for the method shown. For part of these data: In cells and extracts the contact can be indirect. Some results given as binding are weak or reduced against the parent protein; the word gives no strength.

Protein sequences, listed by entry. Tags and fused reporters are not part of them.
UniProt Q2PPJ7: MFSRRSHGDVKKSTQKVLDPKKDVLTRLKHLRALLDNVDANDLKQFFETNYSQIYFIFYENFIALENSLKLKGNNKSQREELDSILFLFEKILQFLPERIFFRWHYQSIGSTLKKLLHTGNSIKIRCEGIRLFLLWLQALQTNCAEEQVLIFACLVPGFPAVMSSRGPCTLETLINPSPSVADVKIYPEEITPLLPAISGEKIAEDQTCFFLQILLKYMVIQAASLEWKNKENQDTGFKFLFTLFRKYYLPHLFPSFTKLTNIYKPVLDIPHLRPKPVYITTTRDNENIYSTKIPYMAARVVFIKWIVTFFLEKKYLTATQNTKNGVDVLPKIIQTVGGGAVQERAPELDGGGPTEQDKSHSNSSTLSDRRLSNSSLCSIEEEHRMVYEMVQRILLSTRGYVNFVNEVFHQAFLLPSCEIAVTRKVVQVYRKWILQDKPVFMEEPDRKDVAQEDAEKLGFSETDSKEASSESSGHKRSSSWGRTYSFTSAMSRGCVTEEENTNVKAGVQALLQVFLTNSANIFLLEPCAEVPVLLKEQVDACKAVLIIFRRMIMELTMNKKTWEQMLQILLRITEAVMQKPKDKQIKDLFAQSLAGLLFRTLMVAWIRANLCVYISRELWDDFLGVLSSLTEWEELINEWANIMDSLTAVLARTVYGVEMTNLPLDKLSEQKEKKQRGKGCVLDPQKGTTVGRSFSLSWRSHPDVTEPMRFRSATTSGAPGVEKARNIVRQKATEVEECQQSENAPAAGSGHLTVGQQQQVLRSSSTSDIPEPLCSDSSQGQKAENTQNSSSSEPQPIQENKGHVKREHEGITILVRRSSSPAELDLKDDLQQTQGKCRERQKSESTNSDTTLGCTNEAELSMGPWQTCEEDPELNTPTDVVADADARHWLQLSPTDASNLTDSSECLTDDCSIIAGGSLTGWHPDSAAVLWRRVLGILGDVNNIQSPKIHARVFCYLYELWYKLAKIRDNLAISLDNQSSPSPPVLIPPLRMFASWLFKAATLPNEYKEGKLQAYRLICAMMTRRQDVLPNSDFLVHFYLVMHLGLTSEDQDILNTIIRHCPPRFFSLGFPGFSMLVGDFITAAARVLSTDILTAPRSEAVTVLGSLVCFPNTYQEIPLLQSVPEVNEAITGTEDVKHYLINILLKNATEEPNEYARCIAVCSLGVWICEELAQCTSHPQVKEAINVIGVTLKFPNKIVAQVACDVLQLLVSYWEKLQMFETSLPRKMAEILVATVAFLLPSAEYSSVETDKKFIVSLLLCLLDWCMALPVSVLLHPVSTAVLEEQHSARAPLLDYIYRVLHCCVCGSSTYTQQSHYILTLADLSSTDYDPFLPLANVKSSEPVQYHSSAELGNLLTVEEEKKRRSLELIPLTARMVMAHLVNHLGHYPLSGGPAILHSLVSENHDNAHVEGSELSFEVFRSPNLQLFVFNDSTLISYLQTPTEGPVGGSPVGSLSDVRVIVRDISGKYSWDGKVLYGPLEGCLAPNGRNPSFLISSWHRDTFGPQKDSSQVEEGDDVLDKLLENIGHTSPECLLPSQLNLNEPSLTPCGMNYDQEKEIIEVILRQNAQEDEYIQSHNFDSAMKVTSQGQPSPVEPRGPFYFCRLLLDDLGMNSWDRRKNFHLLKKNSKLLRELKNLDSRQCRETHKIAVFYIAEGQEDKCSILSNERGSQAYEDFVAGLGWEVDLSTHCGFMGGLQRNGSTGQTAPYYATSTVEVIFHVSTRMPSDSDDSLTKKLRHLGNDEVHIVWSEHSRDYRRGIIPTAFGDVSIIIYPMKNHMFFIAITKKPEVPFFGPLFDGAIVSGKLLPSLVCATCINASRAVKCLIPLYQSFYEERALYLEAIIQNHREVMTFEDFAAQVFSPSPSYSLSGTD

What was measured:
[1] = molecular target: RalGAPα2 (RGα2), full length, co-expressed in Expi293F and purified by FLAG affinity (UniProt Q2PPJ7); assay: co-purification (FLAG affinity); RGα2 co-expressed with RGβ fragments in Expi293F; lysis buffer C (50 mM Tris-HCl pH 7.5, 150 mM NaCl, 4 mM MgCl2, 5% glycerol, 0.3% CHAPS); M2 anti-FLAG beads, 3xFLAG peptide elution
[2] = molecular target: RalGAPα2 (RGα2), full length, co-expressed in Expi293F and purified by FLAG affinity (UniProt Q2PPJ7); assay: co-purification (FLAG affinity, SEC); full-length subunits co-expressed in Expi293F; lysis buffer F (50 mM Tris-HCl pH 7.5, 150 mM NaCl, 1 mM MgCl2, 5% glycerol, 1% Triton-X100); M2 anti-FLAG beads, 3xFLAG peptide elution; size exclusion chromatography
[3] = molecular target: RGα2 full-length (RGα2^fl), transiently expressed in HEK293 cells for co-immunoprecipitation (UniProt Q2PPJ7); assay: co-IP; transiently transfected HEK293T/HEK293FT cells; CoIP buffer 40 mM HEPES, 120 mM NaCl, 10 mM MgCl2, 0.3% CHAPS, pH 7.4; 3xflag beads 2-4 h; western blot

Binder	binding [1]	binding [2]	other results
RGβ^SD-hug-pGAP (aa 881-1495), co-expressed and co-purified with RGα2 (domain or fragment, UniProt Q86X10 881-1494) KYKGDKEPNPASMRVKDAAEATLTCIMQLLGAFPSPSGPASPCSLVNETTLIKYSRLPTINKHSFRYFVLDNSVILAMLEQPLGNEQNDFFPSVTVLVRGMSGRLAWAQQLCLLPRGAKANQKLFVPEPRPVPKNDVGFKYSVKHRPFPEEVDKIPFVKADLSIPDLHEIVTEELEERHEKLRSGMAQQIAYEIHLEQQSEEELQKRSFPDPVTDCKPPPPAQEFQTARLFLSHFGFLSLEALKEPANSRLPPHLIALDSTIPGFFDDIGYLDLLPCRPFDTVFIFYMKPGQKTNQEILKNVESSRTVQPHFLEFLLSLGWSVDVGRHPGWTGHVSTSWSINCCDDGEGSQQEVISSEDIGASIFNGQKKVLYYADALTEIAFVVPSPVESLTDSLESNISDQDSDSNMDLMPGILKQPSLTLELFPNHTDNLNSSQRLSPSSRMRKLPQGRPVPPLGPETRVSVVWVERYDDIENFPLSELMTEISTGVETTANSSTSLRSTTLEKEVPVIFIHPLNTGLFRIKIQGATGKFNMVIPLVDGMIVSRRALGFLVRQTVINICRRKRLESDSYSPPHVRRKQKITDIVNKYRNKQLEPEFYTSLFQEVGLKNCSS	binds	–	–
RGβ^hug (aa 973-1118), transiently expressed in HEK293T cells for co-immunoprecipitation (domain or fragment, UniProt Q86X10 973-1118) SVTVLVRGMSGRLAWAQQLCLLPRGAKANQKLFVPEPRPVPKNDVGFKYSVKHRPFPEEVDKIPFVKADLSIPDLHEIVTEELEERHEKLRSGMAQQIAYEIHLEQQSEEELQKRSFPDPVTDCKPPPPAQEFQTARLFLSHFGFL	–	–	binding [3]: binds
RGβ^D4 (V29E, V33Q, V37E, W65R), co-purified with RGα2 (protein, UniProt Q86X10 1-1494) MYSEWRSLHLVIQNDQGHTSVLHSYPESEGREQANAEVRPLGQVLGTPSVAGSENLLKTDKEVKRTMEVICYGLTLPLDGETVKYCVDVYTDWIMALVLPKDSIPLPVIKEPNQYVQTILKHLQNLFVPRQEQGSSQIRLCLQVLRAIQKLARESSLMARETWEVLLLFLLQINDILLAPPTVQGGIAENLAEKLIGVLFEVWLLACTRCFPTPPYWKTAKEMVANWRHHPAVVEQWSKVICALTSRLLRFTYGPSFPAFKVPDEDASLIPPEMDNECVAQTWFRFLHMLSNPVDLSNPAIISSTPKFQEQFLNVSGMPQELNQYPCLKHLPQIFFRAMRGISCLVDAFLGISRPRSDSAPPTPVNRLSMPQSAAVSTTPPHNRRHRAVTVNKATMKTSTVSTAHASKVQHQTSSTSPLSSPNQTSSEPRPLPAPRRPKVNSILNLFGSWLFDAAFVHCKLHNGINRDSSMTAITTQASMEFRRKGSQMSTDTMVSNPMFDASEFPDNYEAGRAEACGTLCRIFCSKKTGEEILPAYLSRFYMLLIQGLQINDYVCHPVLASVILNSPPLFCCDLKGIDVVVPYFISALETILPDRELSKFKSYVNPTELRRSSINILLSLLPLPHHFGTVKSEVVLEGKFSNDDSSSYDKPITFLSLKLRLVNILIGALQTETDPNNTQMILGAMLNIVQDSALLEAIGCQMEMGGGENNLKSHSRTNSGISSASGGSTEPTTPDSERPAQALLRDYALNTDSAAGLLIRSIHLVTQRLNSQWRQDMSISLAALELLSGLAKVKVMVDSGDRKRAISSVCTYIVYQCSRPAPLHSRDLHSMIVAAFQCLCVWLTEHPDMLDEKDCLKEVLEIVELGISGSKSKNNEQEVKYKGDKEPNPASMRVKDAAEATLTCIMQLLGAFPSPSGPASPCSLVNETTLIKYSRLPTINKHSFRYFVLDNSVILAMLEQPLGNEQNDFFPSVTVLVRGMSGRLAWAQQLCLLPRGAKANQKLFVPEPRPVPKNDVGFKYSVKHRPFPEEVDKIPFVKADLSIPDLHEIVTEELEERHEKLRSGMAQQIAYEIHLEQQSEEELQKRSFPDPVTDCKPPPPAQEFQTARLFLSHFGFLSLEALKEPANSRLPPHLIALDSTIPGFFDDIGYLDLLPCRPFDTVFIFYMKPGQKTNQEILKNVESSRTVQPHFLEFLLSLGWSVDVGRHPGWTGHVSTSWSINCCDDGEGSQQEVISSEDIGASIFNGQKKVLYYADALTEIAFVVPSPVESLTDSLESNISDQDSDSNMDLMPGILKQPSLTLELFPNHTDNLNSSQRLSPSSRMRKLPQGRPVPPLGPETRVSVVWVERYDDIENFPLSELMTEISTGVETTANSSTSLRSTTLEKEVPVIFIHPLNTGLFRIKIQGATGKFNMVIPLVDGMIVSRRALGFLVRQTVINICRRKRLESDSYSPPHVRRKQKITDIVNKYRNKQLEPEFYTSLFQEVGLKNCSS	–	binds	–

Now from value to binder, other results behind:

binding [1]	binding [2]	Binder	other results
binds	–	RGβ^cHEAT-SD-hug-pGAP (aa 576-1494), co-expressed and co-purified with RGα2 (domain or fragment, UniProt Q86X10 576-1494) KGIDVVVPYFISALETILPDRELSKFKSYVNPTELRRSSINILLSLLPLPHHFGTVKSEVVLEGKFSNDDSSSYDKPITFLSLKLRLVNILIGALQTETDPNNTQMILGAMLNIVQDSALLEAIGCQMEMGGGENNLKSHSRTNSGISSASGGSTEPTTPDSERPAQALLRDYALNTDSAAGLLIRSIHLVTQRLNSQWRQDMSISLAALELLSGLAKVKVMVDSGDRKRAISSVCTYIVYQCSRPAPLHSRDLHSMIVAAFQCLCVWLTEHPDMLDEKDCLKEVLEIVELGISGSKSKNNEQEVKYKGDKEPNPASMRVKDAAEATLTCIMQLLGAFPSPSGPASPCSLVNETTLIKYSRLPTINKHSFRYFVLDNSVILAMLEQPLGNEQNDFFPSVTVLVRGMSGRLAWAQQLCLLPRGAKANQKLFVPEPRPVPKNDVGFKYSVKHRPFPEEVDKIPFVKADLSIPDLHEIVTEELEERHEKLRSGMAQQIAYEIHLEQQSEEELQKRSFPDPVTDCKPPPPAQEFQTARLFLSHFGFLSLEALKEPANSRLPPHLIALDSTIPGFFDDIGYLDLLPCRPFDTVFIFYMKPGQKTNQEILKNVESSRTVQPHFLEFLLSLGWSVDVGRHPGWTGHVSTSWSINCCDDGEGSQQEVISSEDIGASIFNGQKKVLYYADALTEIAFVVPSPVESLTDSLESNISDQDSDSNMDLMPGILKQPSLTLELFPNHTDNLNSSQRLSPSSRMRKLPQGRPVPPLGPETRVSVVWVERYDDIENFPLSELMTEISTGVETTANSSTSLRSTTLEKEVPVIFIHPLNTGLFRIKIQGATGKFNMVIPLVDGMIVSRRALGFLVRQTVINICRRKRLESDSYSPPHVRRKQKITDIVNKYRNKQLEPEFYTSLFQEVGLKNCSS	–
–	binds	κB-Ras2 (protein, UniProt Q9NYR9 1-191) MGKSCKVVVCGQASVGKTSILEQLLYGNHVVGSEMIETQEDIYVGSIETDRGVREQVRFYDTRGLRDGAELPRHCFSCTDGYVLVYSTDSRESFQRVELLKKEIDKSKDKKEVTIVVLGNKCDLQEQRRVDPDVAQHWAKSEKVKLWEVSVADRRSLLEPFVYLASKMTQPQSKSAFPLSRKNKGSGSLDG	–
binds	–	RGβ^hug (aa 973-1118), co-expressed and co-purified with RGα2 (domain or fragment, UniProt Q86X10 973-1118) SVTVLVRGMSGRLAWAQQLCLLPRGAKANQKLFVPEPRPVPKNDVGFKYSVKHRPFPEEVDKIPFVKADLSIPDLHEIVTEELEERHEKLRSGMAQQIAYEIHLEQQSEEELQKRSFPDPVTDCKPPPPAQEFQTARLFLSHFGFL	–
